Over roughly 33,000 sequences, “E-score (-0.5 to 0.5)” has its median near -0.043; the highest 2% begin near 0.37. The list shows a part of the results.
Each sequence was assayed against T1, Upc2 (UniProt Q12151) (assay: PBM E-score (8-mer binding enrichment) (E-score (-0.5 to 0.5)); higher = stronger / more preferred TF binding; most listed sequences are background and not binding sites). Details: protein concentration: 200 nM; construct: GST-full length.
T1 sequence: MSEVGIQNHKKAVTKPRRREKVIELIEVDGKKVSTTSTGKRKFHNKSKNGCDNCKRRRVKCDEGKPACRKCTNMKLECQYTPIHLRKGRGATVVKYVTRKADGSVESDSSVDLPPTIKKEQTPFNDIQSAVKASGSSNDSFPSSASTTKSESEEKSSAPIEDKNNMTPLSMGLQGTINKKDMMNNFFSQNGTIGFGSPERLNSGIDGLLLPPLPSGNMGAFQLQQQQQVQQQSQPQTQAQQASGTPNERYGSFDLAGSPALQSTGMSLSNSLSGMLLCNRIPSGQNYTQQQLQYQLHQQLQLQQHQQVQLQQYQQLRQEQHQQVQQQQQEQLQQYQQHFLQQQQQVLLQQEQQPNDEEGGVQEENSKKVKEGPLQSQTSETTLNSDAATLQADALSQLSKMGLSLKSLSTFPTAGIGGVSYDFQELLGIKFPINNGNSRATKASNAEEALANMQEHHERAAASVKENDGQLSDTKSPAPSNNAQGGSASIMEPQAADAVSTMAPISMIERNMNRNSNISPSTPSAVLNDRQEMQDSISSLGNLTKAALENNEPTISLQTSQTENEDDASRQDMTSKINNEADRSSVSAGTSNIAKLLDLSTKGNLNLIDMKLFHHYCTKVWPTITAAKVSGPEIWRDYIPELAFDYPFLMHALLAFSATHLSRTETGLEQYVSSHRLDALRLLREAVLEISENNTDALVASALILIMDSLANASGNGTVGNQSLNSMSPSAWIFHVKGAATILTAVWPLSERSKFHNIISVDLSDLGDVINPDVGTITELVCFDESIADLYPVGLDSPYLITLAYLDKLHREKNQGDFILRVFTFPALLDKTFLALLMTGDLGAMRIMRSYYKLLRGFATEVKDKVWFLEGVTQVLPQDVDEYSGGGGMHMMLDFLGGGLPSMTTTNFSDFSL
Method: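 Universal 'all 10-mer' protein binding microarrays (Agilent AMADID 015681) probed with GST-tagged S. cerevisiae TFs (full-length or DBD) made by in vitro transcription/translation (PURExpress), about 100-200 nM. Bound TF was detected with fluorescent anti-GST. Each ungapped 8-mer (which stands for itself and its reverse complement) is scored by the PBM enrichment score (E-score), a modified Wilcoxon-Mann-Whitney statistic from -0.5 to +0.5, computed with the Universal PBM Analysis Suite. Scale: above 0.35 generally sequence-specific binding.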

Sequence	PBM E-score
CCAGGAAG	-0.066
GCTAGTAC	0.123
TCATCGCA	0.132
AGAGGCAG	-0.0863
AATAGTGA	-0.144
AGCACGTG	0.144
AGGGAGTG	-0.189
ACTAGCCC	-0.218
ACAACACA	0.0331
CAACCGAA	0.173
GCGGGTAC	0.149
ACGGTAAG	0.246
AGAATGGC	-0.0744
AGGCAACT	-0.0376
TATCCTCA	0.0143
AAGGGACC	-0.00722
AACGAAAT	0.398
AGTTCGAT	-0.131
AATGGGGG	-0.252
AAGAAAGC	-0.0961
AACTCCGT	0.0263
ACAGCCAT	0.0163
CCCCGTGA	-0.217
CGCAGGTC	-0.111
GAGAATAA	0.0362

Sequence	PBM E-score
AAGAAATC	-0.0456
AAAGCACA	0.0274
GGTTACAA	0.101
AACGGGCG	0.274
AATACATA	-0.115
AACCTGCA	0.0779
AAACTAGC	-0.111
GGATAAAC	0.239
AGCGAGTA	0.269
CTGAGACC	-0.291
GATCTCAA	-0.109
ACTGGCAC	-0.24
AGTGCCAA	-0.0209
GGATGGCC	-0.314
TATAAATA	0.13
GGGTTTAC	0.144
ATACCTAA	0.108
ATACGCCG	0.343
CATTAGAC	-0.407
GCTCATGA	0.13
GAGGGGTA	0.0563
AGAGCGAA	0.0669
CTAATACA	-0.173
AAATAACA	0.0355
GCACACGC	-0.157

Sequence	PBM E-score
CCAGAAGC	-0.246
TAATCTAA	-0.113
GATACGGC	0.324
AGTGGGAT	0.0238
CCTTCCCA	-0.117
AAGACCCA	-0.151
GTATCATA	0.269
ACGTCAGA	-0.174
CGGTGAAG	-0.0357
AAGCCTTC	-0.324
CTGGACTC	-0.159
GCCAAGCA	-0.254
ATAGCCCC	-0.19
CCATCAAA	0.0175
CAGATCAA	-0.163
CTACTCTC	-0.194
CCATCGCA	0.0499
GGCCTATA	0.0533
AATTTTAG	0.0625
AGTGCGGC	-0.143
ATACGCTC	0.357
ACGAGCAC	0.327
ACCTTCAA	-0.19
CCATCTCA	-0.28
CAAGTCGC	-0.0572

Sequence	PBM E-score
AGAAATTG	-0.0168
CACCGTAG	0.0923
ACTCCTAT	-0.0419
CGCCCGCG	-0.0813
CGGGTACA	0.114
CGTTGGTC	0.026
CCTTTCGC	0.00807
CGAGGAGC	0.185
GCAACTAC	-0.19
CACGGGCC	-0.282
CACGACTA	-0.0651
GCTAGCCA	-0.298
GTTACCGA	0.166
CTCTATGC	-0.0449
TAGAACAA	-0.138
AACAACTA	-0.0906
TCCAGCGA	-0.102
AGTGGACA	-0.197
CGGGATAA	0.0746
AGTTCAGG	-0.0566
CACTAGAA	-0.134
CGAATTTC	0.0708
CACCTCCG	-0.262
ATCTAGCG	-0.0924
CCTTTGGC	-0.349

Sequence	PBM E-score
CGCGTATA	0.451
CGGATTAA	0.128
GTCCGAAC	-0.0689
AGGGGCAC	-0.107
CACAAACG	0.387
CCGTGGAC	-0.0684
CGAACCCC	-0.0262
ATGTTGTC	-0.0387
AGGTGCGC	-0.0888
CACGACAC	0.114
CCACAAGA	-0.204
CCGGCGGC	-0.183
ATAGCATG	-0.146
GGATAAAA	-0.0346
AGACACAC	0.0482
TAGACCGA	-0.0372
CCTCATTC	-0.221
GCCTAATA	-0.0394
ATGCGTCA	0.0463
ATCGTATG	0.455
CTATAAAA	0.108
CCAACGAA	0.109
CTGAACCC	0.0462
GCGACAAC	0.204
AAGTAACC	0.0147

Sequence	PBM E-score
GTACTCCA	-0.0733
GAATTCTA	-0.087
GAAGTTCC	-0.179
AGCATCAA	-0.104
ACGTCCGG	-0.0587
AGTTAGGC	-0.0155
AACGTCAT	0.113
GTCCAACA	-0.0297
CTTATGGC	-0.0984
AAGACCGT	0.0184
GCGCCTCC	-0.133
TAACTCCA	-0.0975
CTAGCCGA	-0.102
AGTCCCGA	-0.167
CTCGCTGC	-0.118
GGGCTTTA	-0.0974
CACTTGTC	-0.071
ACGCTGAA	0.0992
CAAATGAC	-0.272
GCGTAGTA	-0.192
AATAGCAC	-0.143
GCCAGGCC	-0.0468
AACTCAAC	0.00714
GTCATCAA	-0.0824
ATGGGATG	-0.211

Sequence	PBM E-score
ACCTAAGG	-0.226
ATTTTCGC	-0.00681
CTGGCACA	-0.257
CACGTTGA	-0.177
GGTTCGGA	-0.168
AGCAAACG	0.316
ATGAGCGA	0.315
ATTTAACC	-0.0686
GTTTAGCA	0.233
TCTACAGA	-0.13
AAGCGAGA	0.264
ACCTCGGA	0.0635
GCGGCACA	-0.164
GACCCGGC	-0.0556
AGATGCGA	0.114
CTCCGGGA	-0.123
CCAAGAGA	-0.354
AGTTGAAA	-0.237
CGTTTTGA	0.131
CCGACAAG	-0.0687
ATATGTGA	-0.168
CCCTCTCC	-0.339

From the supplement of paper PMC3334620
